The other results are listed elsewhere or left out. These are noisy estimates, calculated here from bound and input reads.
molecular target: T1, Pho4 (S. cerevisiae) (UniProt P07270); assay: relative binding free energy (BET-seq); higher = weaker binding; conditions: reference: library average
T1 sequence: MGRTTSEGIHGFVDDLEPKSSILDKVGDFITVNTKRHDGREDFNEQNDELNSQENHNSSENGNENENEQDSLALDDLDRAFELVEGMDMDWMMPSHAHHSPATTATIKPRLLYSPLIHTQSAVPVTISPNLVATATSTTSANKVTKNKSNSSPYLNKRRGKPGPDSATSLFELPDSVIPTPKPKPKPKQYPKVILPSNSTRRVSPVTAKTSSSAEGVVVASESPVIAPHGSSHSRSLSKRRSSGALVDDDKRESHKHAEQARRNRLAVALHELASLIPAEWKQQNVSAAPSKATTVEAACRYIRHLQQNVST

Row | Sequence | relative binding free energy
1 | ATTGACACGTGTATTG | 0.04 kcal/mol
2 | CGGGTCACGTGAGCTT | 0.33 kcal/mol
3 | TTGTTCACGTGCAGCT | 0.18 kcal/mol
4 | CGCGTCACGTGGTGTA | -0.04 kcal/mol
5 | TAGTACACGTGGAGGG | 0.12 kcal/mol
6 | GGTAACACGTGGTGTA | -0.12 kcal/mol
7 | GTGATCACGTGTAGGG | 0.05 kcal/mol
8 | TCTGTCACGTGCAGTG | 0.14 kcal/mol
9 | GAAGGCACGTGTGAAT | 0.08 kcal/mol
10 | TATGTCACGTGAGTAT | 0.24 kcal/mol
11 | GATGGCACGTGCGGAG | -0.06 kcal/mol
12 | GTTACCACGTGTGGTA | 0 kcal/mol
13 | GCGTTCACGTGGGGGC | 0.22 kcal/mol
14 | CGGAACACGTGTGAGG | 0.06 kcal/mol
15 | TGAGCCACGTGGATTG | 0.06 kcal/mol
16 | TTCTGCACGTGGGTCA | -0.16 kcal/mol
17 | AATTACACGTGACTTG | 0.3 kcal/mol
18 | TGCTTCACGTGAGGTG | 0.35 kcal/mol
19 | GATAGCACGTGTCGTG | -0.08 kcal/mol
20 | TCTGACACGTGTTGTA | 0.01 kcal/mol
21 | CATGTCACGTGGTGAT | 0.06 kcal/mol
22 | TTTTTCACGTGCTCGA | 0.26 kcal/mol
23 | TTTGCCACGTGTAGAG | -0.11 kcal/mol

Row | Sequence | relative binding free energy
24 | CGTTACACGTGGGAGG | 0.07 kcal/mol
25 | AAGGGCACGTGGTGTC | -0.11 kcal/mol
26 | TGCAACACGTGGAGGG | -0.2 kcal/mol
27 | AGTAGCACGTGAGTAG | 0.08 kcal/mol
28 | TTGCGCACGTGGCATG | -0.26 kcal/mol
29 | CGTGTCACGTGCGAGG | -0.05 kcal/mol
30 | ACAGGCACGTGGATGT | -0.11 kcal/mol
31 | TTAGTCACGTGTCGGT | 0.05 kcal/mol
32 | AGTGGCACGTGCGGTA | -0.32 kcal/mol
33 | GATGGCACGTGGAGTT | 0.04 kcal/mol
34 | TAGGCCACGTGTTGGG | -0.01 kcal/mol
35 | CTAGACACGTGTGGGT | 0.14 kcal/mol
36 | CTTTTCACGTGCGTAT | 0.21 kcal/mol
37 | GTGTACACGTGACTTT | 0.22 kcal/mol
38 | AGGAGCACGTGGGGTT | -0.24 kcal/mol
39 | TGCGTCACGTGTTTAG | 0.03 kcal/mol
40 | GTGCGCACGTGGTGTC | -0.24 kcal/mol
41 | GGTAGCACGTGTAAAA | 0.15 kcal/mol
42 | TTTCACACGTGTGCGT | 0.05 kcal/mol
43 | ATAGTCACGTGAAGTT | 0.32 kcal/mol
44 | TATGTCACGTGTTAAG | 0.12 kcal/mol
45 | GATAGCACGTGTAAGG | 0.03 kcal/mol
46 | AAACTCACGTGGTAGG | 0.2 kcal/mol

Row | Sequence | relative binding free energy
47 | TAGCGCACGTGGAGAT | 0.03 kcal/mol
48 | GTATACACGTGGTTTA | -0.14 kcal/mol
49 | TGTAGCACGTGGAAAG | 0.03 kcal/mol
50 | TTTAACACGTGACGGG | 0.12 kcal/mol
51 | ATTGACACGTGGCAGG | -0.12 kcal/mol
52 | GTATACACGTGTGTCT | 0 kcal/mol
53 | TGGGGCACGTGCGCAT | -0.19 kcal/mol
54 | GGTTACACGTGATACG | 0.24 kcal/mol
55 | GTAGGCACGTGAACTT | 0.24 kcal/mol
56 | TTCGGCACGTGCGTTG | 0.03 kcal/mol
57 | GTATGCACGTGCCGGT | -0.17 kcal/mol
58 | GTTTGCACGTGTAGTT | 0.05 kcal/mol
59 | TGAGCCACGTGTTTTT | -0.03 kcal/mol
60 | CGTATCACGTGGCGTT | 0.05 kcal/mol
61 | TGGCTCACGTGTGATA | 0.24 kcal/mol
62 | TGTTTCACGTGCGTGA | 0.18 kcal/mol
63 | TGCGTCACGTGTGCTG | 0.07 kcal/mol
64 | GAGTGCACGTGTTGAT | -0.07 kcal/mol
65 | ACGTGCACGTGTGGAT | 0 kcal/mol
66 | CTTTTCACGTGAATAT | 0.41 kcal/mol
67 | GGTGTCACGTGGGAAT | 0.23 kcal/mol
68 | TTGCTCACGTGTAATT | 0.24 kcal/mol
69 | GGTTACACGTGTATCT | 0.12 kcal/mol

Row | Sequence | relative binding free energy
70 | ATTATCACGTGGGTGG | -0.02 kcal/mol
71 | TGGATCACGTGTGGTA | 0.22 kcal/mol
72 | TGGTTCACGTGTGTCA | 0.15 kcal/mol
73 | CGTTACACGTGTCGTG | 0.09 kcal/mol
74 | ATGTACACGTGATTGT | 0.06 kcal/mol
75 | TGTTTCACGTGTTGGT | 0.24 kcal/mol
76 | CTGTCCACGTGTTTTG | 0.04 kcal/mol
77 | TATAGCACGTGGTCTT | -0.13 kcal/mol
78 | TGCTTCACGTGGGCGT | 0.13 kcal/mol
79 | CTGGCCACGTGGGGCT | -0.27 kcal/mol
80 | TATAACACGTGGTGCT | -0.07 kcal/mol
81 | GATGCCACGTGGGATG | 0.05 kcal/mol
82 | AGGAACACGTGGTAGG | -0.04 kcal/mol
83 | TAGTTCACGTGCTTTA | 0.2 kcal/mol
84 | GGACTCACGTGTTGGA | 0.25 kcal/mol
85 | TTTAGCACGTGATGTA | 0.05 kcal/mol
86 | TGGGTCACGTGTTCGT | 0.12 kcal/mol
87 | AAGGACACGTGGTGAG | 0.19 kcal/mol
88 | GTTATCACGTGGGTTT | 0.13 kcal/mol
89 | CTTTGCACGTGGTTAG | -0.05 kcal/mol
90 | CATGGCACGTGTATTG | -0.07 kcal/mol
91 | AGGGGCACGTGGCGAA | -0.16 kcal/mol
92 | GAGCGCACGTGGTGAG | -0.04 kcal/mol

Row | Sequence | relative binding free energy
93 | ATCAGCACGTGAAGGG | 0.16 kcal/mol
94 | ACGATCACGTGTGGGC | 0.25 kcal/mol
95 | ATGCGCACGTGTCAGT | 0.03 kcal/mol
96 | AGCGTCACGTGGGCGT | -0.26 kcal/mol
97 | GGTAGCACGTGTTACG | 0.06 kcal/mol
98 | AAGGTCACGTGGGGAC | -0.01 kcal/mol
99 | GTAGACACGTGCTGGT | -0.04 kcal/mol
100 | ATCAGCACGTGGTGCG | -0.14 kcal/mol
101 | GGTAGCACGTGAGTGA | 0.14 kcal/mol
102 | GTTAGCACGTGAATTG | 0.25 kcal/mol
103 | TTAGACACGTGTTGGC | 0.16 kcal/mol
104 | TGTCACACGTGTTGTT | 0 kcal/mol
105 | ACAGTCACGTGTTTGT | -0.01 kcal/mol
106 | CGTTTCACGTGTCGGA | 0.28 kcal/mol
107 | ATTGTCACGTGCGGTA | 0.01 kcal/mol
108 | TTTGCCACGTGTTAGA | -0.06 kcal/mol
109 | GTGGTCACGTGCATTG | 0.14 kcal/mol
110 | TCATTCACGTGGTTGG | 0.28 kcal/mol
111 | CGCGTCACGTGGTATG | 0.02 kcal/mol
112 | TCGTTCACGTGGTAGC | 0.32 kcal/mol
113 | TATGACACGTGAGGGT | 0.18 kcal/mol
114 | GCTAGCACGTGTGTTG | 0.06 kcal/mol
115 | GGACACACGTGGGTGG | -0.1 kcal/mol

Reference: the BET-seq Pho4 binding data (Le et al. 2018)
